Assay results: a compilation of properties of binary mixtures (doi:10.1021/je9702955)
Some of these densities may be calculated back from excess volumes.

Assay: xn = mol fraction of the nth substance listed
Details: 298.15 K, 100 kPa

CCCCOCCOCCOCCCC + CCCO
Details | mass density [kg/m3]
x1 = 0.0034 | 800.4
x1 = 0.0097 | 802.1
x1 = 0.0158 | 803.8
x1 = 0.0252 | 806.2
x1 = 0.0426 | 810.5
x1 = 0.0979 | 821.9
x1 = 0.1509 | 830.6
x1 = 0.1955 | 836.7
x1 = 0.2419 | 842.1
x1 = 0.2937 | 847.3
x1 = 0.3481 | 851.9
x1 = 0.3959 | 855.4
x1 = 0.4376 | 858.2
x1 = 0.4827 | 860.8
x1 = 0.54 | 863.8
x1 = 0.5983 | 866.4
x1 = 0.6954 | 870.1
x1 = 0.7531 | 872
x1 = 0.8095 | 873.6
x1 = 0.9083 | 876.1
x1 = 0.9447 | 876.9
x1 = 0.9742 | 877.6

CCOCCOCCOCC + CCCO
Details | mass density [kg/m3]
x1 = 0.0129 | 802.8
x1 = 0.0249 | 805.8
x1 = 0.0395 | 808.5
x1 = 0.0516 | 812.2
x1 = 0.0695 | 816.3
x1 = 0.097 | 822.1
x1 = 0.1283 | 828.2
x1 = 0.1736 | 836.2
x1 = 0.2229 | 843.9
x1 = 0.2672 | 850.2
x1 = 0.3115 | 855.8
x1 = 0.4026 | 865.9
x1 = 0.4592 | 871.3
x1 = 0.5239 | 876.8
x1 = 0.5856 | 881.5
x1 = 0.6363 | 885
x1 = 0.6742 | 887.5
x1 = 0.7119 | 889.8
x1 = 0.7662 | 892.8
x1 = 0.8311 | 896.2
x1 = 0.8815 | 898.6
x1 = 0.9142 | 900
x1 = 0.9468 | 901.4
x1 = 0.9756 | 902.5

COCCO + CCCO
Details | mass density [kg/m3]
x1 = 0.0072 | 800.6
x1 = 0.0297 | 804.4
x1 = 0.0471 | 807.3
x1 = 0.062 | 809.7
x1 = 0.0767 | 812.2
x1 = 0.0973 | 815.6
x1 = 0.2144 | 834.9
x1 = 0.2667 | 843.5
x1 = 0.3227 | 852.6
x1 = 0.3699 | 860.3
x1 = 0.4118 | 867.1
x1 = 0.4575 | 874.5
x1 = 0.4938 | 880.3
x1 = 0.5359 | 887.1
x1 = 0.5856 | 895
x1 = 0.6298 | 902.1
x1 = 0.6793 | 909.9
x1 = 0.7347 | 918.7
x1 = 0.7779 | 925.5
x1 = 0.8231 | 932.6
x1 = 0.9597 | 953.9

COCCOCCOC + CCCO
Details | mass density [kg/m3]
x1 = 0.0064 | 801.1
x1 = 0.0122 | 802.7
x1 = 0.0238 | 805.7
x1 = 0.0358 | 808.8
x1 = 0.0803 | 819.6
x1 = 0.1176 | 828
x1 = 0.1632 | 837.7
x1 = 0.2064 | 846.1
x1 = 0.2619 | 856.2
x1 = 0.3716 | 873.9
x1 = 0.4168 | 880.4
x1 = 0.4652 | 886.9
x1 = 0.5109 | 892.7
x1 = 0.5509 | 897.5
x1 = 0.5982 | 902.9
x1 = 0.711 | 914.3
x1 = 0.7757 | 920.7
x1 = 0.819 | 925
x1 = 0.9094 | 932
x1 = 0.9425 | 934.6
x1 = 0.9722 | 936.9

COCCOCCOCCOC + CCCO
Details | mass density [kg/m3]
x1 = 0.0081 | 803
x1 = 0.0245 | 810
x1 = 0.0336 | 813.8
x1 = 0.048 | 819.6
x1 = 0.0692 | 827.7
x1 = 0.0946 | 836.8
x1 = 0.1327 | 849.3
x1 = 0.1747 | 861.9
x1 = 0.2259 | 875.6
x1 = 0.2757 | 887.5
x1 = 0.3691 | 906.8
x1 = 0.4606 | 922.7
x1 = 0.5714 | 938.7
x1 = 0.6283 | 945.9
x1 = 0.7227 | 956.5
x1 = 0.7726 | 961.7
x1 = 0.8625 | 969.9
x1 = 0.9112 | 974
x1 = 0.9347 | 975.8
x1 = 0.9568 | 977.5
x1 = 0.9775 | 979.1

OCCO + CCCO
Details | mass density [kg/m3]
x1 = 0.0111 | 802.1
x1 = 0.0482 | 811.1
x1 = 0.0722 | 817.1
x1 = 0.0979 | 823.5
x1 = 0.1442 | 835.3
x1 = 0.1912 | 847.5
x1 = 0.2938 | 875.3
x1 = 0.345 | 889.6
x1 = 0.3886 | 902.2
x1 = 0.4681 | 925.8
x1 = 0.5096 | 938.6
x1 = 0.5452 | 949.7
x1 = 0.5843 | 962.2
x1 = 0.6533 | 984.8
x1 = 0.6993 | 1000.4
x1 = 0.7522 | 1018.6
x1 = 0.7998 | 1035.5
x1 = 0.84 | 1050
x1 = 0.918 | 1078.7
